# Measured values: ChEMBL document CHEMBL4888484, “Replenishing the malaria drug discovery pipeline: Screening and hit evaluation of the MMV Hit Generation Library 1 (HGL1) against asexual blood stage Plasmodium falciparum ,using a nano luciferase reporter read-out” (2022)
# Screen size: about 150,000 compounds; about 540 (0.36%) showed an effect of 50% or more. The list shows a part of the results.
# Test system: Plasmodium falciparum
# Experiment: Primary screen in NF54 nanoGlo assay, in single point, at 2uM, 72h; a lower Z score goes with more inhibition
# Format: functional, Erythrocyte
# Settings: timepoint 72 hour
Structure (SMILES),% Inhibition [%],Z score
CCCn1ncc(C(=O)N2C[C@H]3CC[C@@H](C2)N(Cc2ccccn2)C3)c1C,-1,0.19
COc1ccc(S(=O)(=O)N[C@H]2[C@H](O)[C@H](O)C[C@@H]2c2ccc(C(F)(F)F)cc2)cc1,11,-1.32
Cc1nn(C)c(C)c1CNC(C)CC(O)c1ccc(F)cc1 (stereo not given),-3,0.38
O=C(Nc1ccc(CN2CCCC2=O)cc1)c1ccc(C2CCC2)cc1,-2,0.25
COc1ccc(-n2ncc3c2CC(C)(C)C[C@@H]3NC(=O)c2cc3ncccn3n2)cc1,6,-0.52
Cc1cc(NC(=O)C2(c3ccccc3)CC(=O)C2)cc2[nH]ncc12,-17,3.17
c1ccc(C2(c3ccccc3)NCCO2)cc1,3,-0.35
COC(=O)c1nc([C@@H]2CCCN2Cc2ccncc2)sc1C,8,-0.79
Cc1ccc(S(=O)(=O)c2cnc3ccc(Cl)cc3c2Nc2ccc3c(c2)OCCO3)cc1,2,-0.29
CC[C@](C)(NCC#N)c1nc(C)cs1,-9,0.89
CN(Cc1ccccc1Br)c1nccn(C)c1=O,-4,0.59
COc1cccc(Cc2csc(NCc3ccccc3)n2)c1,-1,0.28
CCCc1noc(CN2CCc3sccc3C2)n1,0,0.05
O=C(NCC1CCN(Cc2ccoc2)CC1)c1cscn1,1,-0.18
O=C(NCc1ccc(=O)[nH]n1)c1cc(Br)cnc1C1CC1,-4,0.57
O=c1n(CCN2CCN(Cc3ccccc3)CC2)nc2ccccn12,-14,1.52
CN(CCN1CCCC1)S(=O)(=O)Cc1ccccc1F,-11,1.46
COc1ccc(S(=O)(=O)c2csc3c2NC(=O)C[C@@H]3c2ccc(C)c(C)c2)cc1,-18,1.82
CCc1nc2cc(N3CCC(C(=O)N[C@@H](C)CC)CC3)cnc2nc1CC,-9,1.42
CC(C)Cn1nnc2ccc(NC(=O)c3cccnc3)cc2c1=O,16,-2.08
CN1CC(=O)N(CC(=O)N2C[C@H](c3ccccc3)C3(CCC3)C2)C1=O,-3,0.48
CC(=O)NCCNC(=O)Nc1ccccc1C1CC1,-6,0.88

Structure (SMILES),% Inhibition [%],Z score
COc1ccc(OCc2cc(C(=O)NCc3noc(C)n3)n[nH]2)c(Cl)c1,-1,0.1
CO[C@@](C)(CNC(=O)Cc1ccsc1)c1cccc(Cl)c1,21,-2.62
C[C@H](NC(=O)c1cc2n(n1)CCCN(Cc1ccc(F)cc1)C2=O)C(=O)NCCN1CCCCC1,-2,0.38
Cc1cc2c(cc1C)N[C@@H](CC(=O)NC1CCCCC1)C(=O)N2,16,-2.07
Cc1ccc2c(c1)c1c(n2CCc2ccncc2)CCCN(C)C1,4,-0.46
Cc1c[nH]c(CNC(=O)c2ccc3c(c2)n(CC2CC2)c(=O)n3C2CCCCC2)n1,-8,0.83
C[C@@H](CO)NC(=O)Nc1ccn(-c2nccs2)n1,8,-0.97
CC(=O)N1CCN(c2nc(C3CC3)nc(C)c2Cc2ccccc2F)CC1,-16,1.49
Cn1cc(CNc2cccc(-c3ccc4c(c3)OCCO4)n2)cn1,-1,0.08
C[C@H]1CN(C(=O)CS(=O)(=O)c2ccc(F)cc2F)CCO1,0,0.06
O=C(NCCOc1ccccc1)NC[C@H](O)c1ccoc1,-6,0.78
COc1ccccc1C(=O)N[C@@H]1c2ccccc2C2(CCNCC2)[C@H]1O,3,-0.55
COC(=O)c1ccc(-c2noc(C3CN(C4CCOCC4)C3)n2)cc1,24,-2.71
Cc1cccc(CN2CC(=O)N3CCN(C(=O)C4CCCC4)CC[C@H]3C2=O)c1,-22,2.98
CC(C)N1CCC(NCc2c[nH]nc2-c2cccs2)CC1,-8,1.66
CC(C)CN(C)C(=O)c1ccc(-c2ccc3[nH]c(=O)[nH]c(=O)c3c2)cc1,0,-0.01
O=C1C[C@@H]2CCN(C3CCOCC3)C[C@@H]2CCOc2ccc(-c3cccnc3)cc2N1,13,-2.05
Cc1nnc2c(S(=O)(=O)N(CC#N)c3cc(F)cc(F)c3)cccn12,-14,1.78
Cc1oc(-c2ccccc2NC(=O)CC2CCCC2)nc1CNC(=O)[C@@H]1CCCO1,16,-2.08
Cc1nonc1C(=O)N[C@H]1CC(=O)N(Cc2cccc3ccccc23)C1,-11,1.65
Cc1ccccc1NC(=O)Cn1nc2c3cc(Cl)ccc3ncn2c1=O,9,-1.41
COc1ccc(CN2CC[C@H]2C(=O)N[C@H]2CC[C@@H](CO)CC2)cc1,-10,1.98

Structure (SMILES),% Inhibition [%],Z score
Cc1ccc(-c2c(C(=O)NC3CCN(C(C)C)CC3)csc2C)cc1,11,-1.01
COC(=O)CN(CC#Cc1ccc(F)cc1)C(C)(C)C,-18,1.97
Cn1nccc1C1CCN(c2nc(N)c3cnn(C)c3n2)CC1,5,-0.9
CC(C(=O)NCC1CCCO1)N(C)CCOc1cccc(F)c1 (stereo not given),-10,1.31
CN1C(=O)CC[C@]2(CNC(=O)c3ccnn3C)CCCC=C12,11,-1.57
Cc1ccn2ncc(C(=O)N3CCC34COC4)c2c1,2,-0.33
Cc1sc(=O)n(Cc2cc(-c3cccs3)on2)c1-c1ccccc1,0,-0.06
COC[C@H](C)C1CCN(C(=O)CCN2CCCCCC2)CC1,-1,0.08
Cc1ccc([C@@H]2Cn3nnc(-c4nc(-c5ccccc5F)no4)c3CO2)c(C)c1,-14,1.3
CCc1nc(C)c(C(=O)N[C@H]2CCCN(Cc3ncc[nH]3)CC2)o1,-12,1.48
COC(=O)c1ccc2[nH]c(CNS(=O)(=O)C3(C)CC3)nc2c1,1,-0.14
COC(=O)C(C)N(C)C(=O)C(C)Oc1ccc(C(C)C)c(C)c1 (stereo not given),-9,1.33
CCN(Cc1nc(C(C)(C)C)co1)[C@H]1CCS(=O)(=O)C1,-3,0.33
O=C(Nc1cc(F)cc(F)c1)[C@@H]1CCCCN1CCN1CCCCC1,0,0.03
Cn1ccnc1CN1CCCC12CCN(c1ccc3ncccc3c1)CC2,-4,0.72
O=C(NC[C@H]1CCCC1(F)F)Nc1ccc2c(n1)CCC2,-10,1.72
Cc1cc(C(C)NCC(=O)N2CCCC(C)C2)c(C)o1 (stereo not given),-3,0.43
COC1(c2nc(-c3cc(C)cc(C)n3)no2)CCOCC1,2,-0.32
COC(=O)CC1(NCc2ccc3nc(C)ccc3c2)CCOCC1,15,-2.9
COc1ccc([C@H]2C(=O)N(C3CCCCC3)CC(=O)N2Cc2ccc(C)cc2)cc1,-6,0.74
COCCC[C@]1(C(=O)O)CCCN(C(=O)c2n[nH]c3c2CCCC3)C1,17,-2.21
Cc1cc(C)c(CN[C@@H](CCO)C(F)F)cc1C,9,-1.06

Structure (SMILES),% Inhibition [%],Z score
Cn1ccc(C(=O)NC2(c3ccc(Cl)c(Cl)c3)CC2)cc1=O,2,-0.33
CCCCS(=O)(=O)NC[C@H]1CCCN(C)C1,1,-0.18
COc1ncccc1CN1CCC(C)C(OC)C1 (stereo not given),-1,0.21
Cc1c(C#N)c(N(C)C[C@H](C)C(=O)O)nc2ccccc12,-5,0.67
O=C(CC1CC(c2ccccc2)C1)NCCCc1nc(=O)[nH][nH]1 (stereo not given),1,-0.11
Cc1ccc(COC2CN(C(=O)COc3cccc(C)c3)C2)cc1,-14,1.26
COc1cccc(CN2CCCOCCNC(=O)[C@@H]3CCCC[C@@H]32)c1OC,5,-0.78
CC(C)[C@](C)(CO)NC(=O)C1CCC(O)CC1 (stereo not given in full),6,-0.99
CCN1CCC(N(CCc2ccccn2)Cc2cc(C)no2)CC1,2,-0.34
O=C(C1CCCCC1)N1c2ncnn2C2(CCCCC2)[C@@H]2CCCC[C@@H]21,-12,1.94
CN(CCN1CCOC1=O)c1noc(-c2ccccc2)n1,-8,1.36
COc1ccc(-c2cnc3ncnn3c2N2CCCN(C(=O)c3cc(F)c(F)cc3F)CC2)cc1OC,2,-0.35
CC1(CCNC(=O)N[C@H]2CC(C)(C)c3ccccc32)OCCO1,-12,1.64
CC1(C)CN(CC(=O)N(c2ccccc2)C2CCCCC2)CCN1CC(F)(F)F,-4,0.48
CCN1C[C@@H](c2ccccc2)CC2(CCN(Cc3cnc(COC)nc3)CC2)C1,-14,1.74
CCCn1c(=O)c(C)nc2cc(-c3noc([C@H]4CC(=O)N(c5ccccc5)C4)n3)ccc21,-12,1.2
CN1CCN(Cc2cnc(-c3ccccc3)o2)CC1=O,-8,1.56
Cc1ccc(-c2nc([C@H]3CCOC3)no2)cn1,-12,1.55
O=C(O)c1cn2c3c(cccc3c1=O)CC2,8,-0.93
